Reference: PubChem BioAssay (NCATS)
Inconclusive means that the source gave no clear call. Such entries were picked first, then a sample of the others. Where the call is inconclusive, the potency comes from a doubtful curve fit. Active and inactive are the calls of the source. The call rests on the fitted dose curve; in most records, active means well fitted cell-killing curve with a large enough effect; inconclusive means small, poorly fitted or top-dose-only effect, or effect the other way; inactive means no such curve, though single readings can be large or run the other way.
Potency means the concentration at half of the fitted maximal effect; tags describe the fitted curve by direction and shape.

Test: Viability qHTS for spleen associated tyrosine kinase inhibitor (SYKi) naive MV4-11 cells (AID 1963823); further: nearly all actives have a fitted effect of over 40% in size
Conditions: MV4-11 AML viability, CellTiter-Glo luminescence, 72 h; viability (% of control): at 45 µM (top of the series)
Summary of the method: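 SYK inhibitor-naive MV4-11 cells, 500 per well, exposed to compounds for 72 hr at 37 C, 5% CO2. Viability read as CellTiter-Glo luminescence after 10 min at room temperature.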
For `CC(C)(C)C[C@H]1N[C@@H](C(=O)NC2CCC(O)CC2)[C@H](c2cccc(Cl)c2F)[C@@]12C(=O)Nc1cc(Cl)ccc12` (stereo partly drawn), the Potency was inconclusive: 9.34 µM [cytotoxic, partial curve]. For `Cc1[nH]c2ccc(F)cc2c1-c1nc2c3cccnc3c3ncccc3c2[nH]1`, the Potency was active: 0.231 µM. For `NC(CSCC(=O)O)C(=O)O` (stereo not drawn), the “viability (% of control)” value was inactive: 81.7%.

Test: Viability qHTS for spleen associated tyrosine kinase inhibitor (SYKi) drug resistant MV4-11 cells (AID 1963824); further: nearly all actives have a fitted effect of over 35% in size
Conditions: SYKi-resistant MV4-11 viability, CellTiter-Glo, 72 h; series mostly up to 45 µM; viability, % of control: at the top concentration
Summary of the method: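 CellTiter-Glo luminescence, read 10 min after reagent addition, reports viability after a 72 hr compound exposure. Cells are an MV4-11 line made resistant to SYK inhibition, seeded at 500 per well onto compound-containing plates.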
With `CC1(C)C[C@H](O)C[C@@]2(C)OC(=O)C=C12` the Potency was inconclusive: 0.473 µM [cytotoxic, full curve, poor fit]. For `C[C@H]1[C@H](/C=C/c2ccc(-c3ccccc3C#N)cn2)[C@@H]2[C@@H](C)OC(=O)[C@@H]2C[C@@H]1C`, the Potency was active: 7.31 µM. In the case of `CCc1cccc(CC)c1-n1c(C=C(C)C)c(C(=O)N2CCNCC2)cc(-c2nc(-c3ccc(C(F)(F)F)cc3)cs2)c1=O`, the “viability, % of control” value is reported as inactive: 5.72% [at 17.3 µM]. For `CC(=O)OCCC(C)CCC1C(C)(O)CCC2C(C)(C)CCCC21C` (stereo not drawn), the Potency was inconclusive: 10.1 µM [cytotoxic, partial curve, poor fit]. In the case of `CC1CCC2(C(=O)O)CCC3(C)C(=CCC4C5(C)CCC(O)C(C)(CO)C5CCC43C)C2C1(C)O` (stereo not drawn), the “viability, % of control” value is reported as inactive: 76.7% [at 17.3 µM]. In the case of `CCCCNC(=O)[C@@H]1Cc2ccccc2N1C(=O)[C@@H](N)CC`, the “viability, % of control” value is reported as inactive: 85%. For `CN1CCN(C2=Nc3ccccc3Nc3ccc(O)cc32)CC1`, the “viability, % of control” value was inactive: 58.3%. In the case of `NCC1CCC(C(=O)Oc2ccc(CCC(=O)O)cc2)CC1` (stereo not drawn), the “viability, % of control” value is reported as inactive: 95.5%. For `OCCN1C[C@H](O)[C@@H](O)[C@H](O)[C@H]1CO`, the Potency was “inactive”. For `C=C1C(=O)O[C@@H]2/C=C(\C)CC/C=C(/C=O)[C@H](OC)[C@@H](OC(=O)C(C)C)[C@@H]12`, the Potency was active: 2.55 µM.
